Laboratory results from the antibiotic and cytotoxicity screens of Wong et al. (2023).
This is one part of the list.

Key:
[1] = tested on: HSkMC (human skeletal muscle cells); test: cytotoxicity call (relative viability < 0.9); details: 10 µM
[2] = tested on: HepG2; test: cytotoxicity call (relative viability < 0.9); details: 10 µM
[3] = tested on: S. aureus RN4220; test: growth inhibition call (relative growth <= 0.2); details: 50 µM

SMILES	cytotoxicity call [1]	cytotoxicity call [2]	growth inhibition call [3]
COc1ccc(S(=O)(=O)Nc2ccc3c(c2)CC(=O)N([C@@H](C)CO)C[C@H](C)[C@@H](CN(C)S(C)(=O)=O)O3)cc1	inactive	inactive	inactive
NCCC(=O)NCCc1cnc[nH]1	inactive	inactive	inactive
C[C@@H]1CN([C@@H](C)CO)C(=O)c2cc(NC(=O)c3ccncc3)ccc2O[C@H]1CN(C)S(=O)(=O)c1ccc(F)cc1	inactive	inactive	inactive
C[C@@H]1CCCCO[C@H](CN(C)C(=O)Nc2cccc3ccccc23)[C@H](C)CN([C@H](C)CO)C(=O)c2cc(NS(C)(=O)=O)ccc2O1	inactive	active	inactive
CO[C@@H]1CN(C)C(=O)c2ccc(NS(C)(=O)=O)cc2OC[C@@H](C)N(S(=O)(=O)CC(F)(F)F)C[C@H]1C	inactive	inactive	inactive
CO[C@@H](C(=O)N(C)C[C@H]1OCc2ccccc2-c2c(n(C)c3ccccc23)C(=O)N([C@@H](C)CO)C[C@@H]1C)c1ccccc1	inactive	inactive	inactive
CCNC(=O)C[C@H]1CC[C@@H]2[C@H](COC[C@H](O)CN2S(=O)(=O)c2ccc(Oc3ccccc3)cc2)O1	inactive	inactive	inactive
Cc1noc(C)c1S(=O)(=O)Nc1ccc2c(c1)C(=O)N([C@H](C)CO)C[C@H](C)[C@@H](CN(C)Cc1ccc(C(F)(F)F)cc1)OCCCC[C@H](C)O2	inactive	inactive	inactive
OC[C@@H]1CCCN1	inactive	inactive	inactive
C[C@@H]1CN([C@H](C)CO)C(=O)c2cc(NC(=O)CCC(F)(F)F)ccc2O[C@@H]1CN(C)Cc1ccc(-c2ccccc2)cc1	inactive	inactive	inactive
C[C@@H]1CCCCO[C@H](CN(C)Cc2ccc(Cl)c(Cl)c2)[C@@H](C)CN([C@H](C)CO)C(=O)c2cc(NC(=O)NC3CCCCC3)ccc2O1	inactive	inactive	inactive
C[C@@H]1CN([C@@H](C)CO)S(=O)(=O)c2ccc(C#C[C@@H](C)O)cc2O[C@@H]1CN(C)C	inactive	inactive	inactive
CO[C@@H]1[C@H](O[P@@](=O)(S)OC[C@H]2O[C@@H](n3cnc4c(N)ncnc43)C[C@@H]2O)[C@@H](CO)O[C@H]1n1ccc(=O)[nH]c1=O	active	active	inactive
C[C@H](CO)N1C[C@H](C)[C@H](CN(C)C(=O)Nc2cccc3ccccc23)Oc2ccc(NS(=O)(=O)c3cccs3)cc2CC1=O	inactive	inactive	inactive
Cc1ccc(S(=O)(=O)N(C)C[C@@H]2OCCCC[C@H](C)Oc3ccc(NS(C)(=O)=O)cc3C(=O)N([C@H](C)CO)C[C@@H]2C)cc1	inactive	inactive	inactive
C[C@H]1CCCCO[C@H](CN(C)Cc2ccncc2)[C@@H](C)CN([C@@H](C)CO)C(=O)c2cc(NC(=O)c3ccccc3)ccc2O1	inactive	inactive	inactive
C[C@H]1CN([C@@H](C)CO)C(=O)CCCn2cc(nn2)CO[C@H]1CN(C)S(=O)(=O)c1cccc(C#N)c1	inactive	inactive	inactive
O=C(O)c1ccc2c(ccc3nn(-c4ccc(/C=C/c5ccc(-n6nc7ccc8cc(C(=O)O)ccc8c7n6)cc5S(=O)(=O)O)c(S(=O)(=O)O)c4)nc32)c1	inactive	inactive	inactive
COc1ccc(C#Cc2cnc3c(c2)C(=O)N([C@H](C)CO)C[C@@H](C)[C@@H](CN(C)C(=O)CC2CC2)O3)cc1	inactive	inactive	inactive
COc1cccc(NC(=O)N(C)C[C@@H]2OCc3ccccc3-c3c(n(C)c4ccccc34)C(=O)N([C@@H](C)CO)C[C@@H]2C)c1	inactive	inactive	inactive
C[C@@H]1CN([C@@H](C)CO)C(=O)Cc2cc(NC(=O)CCC(F)(F)F)ccc2O[C@H]1CN(C)Cc1ccc(Oc2ccccc2)cc1	inactive	active	inactive
C=CC[C@@H](CC(=O)N[C@H](CO)Cc1ccccc1)C(=O)NC[C@H](OC(=O)[C@@H](CC=C)Cc1ccc(F)cc1)c1ccccc1	active	active	inactive
NC1C(OC2C(C(=O)[O-])OC(COC3C(CO)OC(O)C(O)C3O)C(OS(=O)(=O)[O-])C2O)OC(COS(=O)(=O)[O-])C(O)C1O (centres undefined)	inactive	inactive	inactive
C[C@@H]1CCCCO[C@H](CN(C)Cc2ccccc2)[C@@H](C)CN([C@@H](C)CO)C(=O)c2cc(NC(=O)CCCCCC(=O)Nc3ccccc3N)ccc2O1	inactive	inactive	inactive
Cc1ccc2[nH]c3c(c2c1)CCC[C@H]3Nc1ccc(Cl)cc1	inactive	inactive	inactive
C[C@H]1CCCCO[C@H](CN(C)S(=O)(=O)c2cn(C)cn2)[C@@H](C)CN([C@@H](C)CO)C(=O)c2cc(NS(=O)(=O)c3ccccc3)ccc2O1	inactive	inactive	inactive
O=C(Cc1ccccn1)NCC[C@@H]1CC[C@@H](NC(=O)CN2CCOCC2)[C@@H](CO)O1	inactive	inactive	inactive

SMILES	cytotoxicity call [1]	cytotoxicity call [2]	growth inhibition call [3]
C[C@@H]1CN([C@@H](C)CO)C(=O)Cc2cc(NS(=O)(=O)c3ccccc3)ccc2O[C@@H]1CN(C)Cc1ccc(Oc2ccccc2)cc1	active	active	inactive
C[C@@H]1CN([C@H](C)CO)C(=O)c2cc(NS(=O)(=O)c3cn(C)cn3)ccc2O[C@@H](C)CCCCO[C@@H]1CN(C)S(=O)(=O)c1cn(C)cn1	inactive	inactive	inactive
CC(=O)N=c1sc(S(N)(=O)=O)nn1C	inactive	inactive	inactive
COc1cccc(NC(=O)N(C)C[C@H]2Oc3cc(C#CC4(O)CCCC4)ccc3S(=O)(=O)N([C@@H](C)CO)C[C@H]2C)c1	inactive	inactive	inactive
C[C@H]1CN([C@@H](C)CO)C(=O)c2cc(NC(=O)c3ccncc3)ccc2O[C@H]1CN(C)S(=O)(=O)c1ccc(F)cc1	inactive	inactive	inactive
COc1ccc(NC(=O)N(C)C[C@H]2OCCCC[C@@H](C)Oc3ccc(NS(=O)(=O)c4ccc(OC)cc4)cc3C(=O)N([C@@H](C)CO)C[C@H]2C)cc1	inactive	inactive	inactive
CC=Cc1ccc2n(c1=O)C[C@H]1[C@H](CO)[C@@H](C(=O)NCCc3cn(C)cn3)N(C(=O)C3CC3)[C@@H]21	inactive	inactive	inactive
C[C@@H]1CN([C@@H](C)CO)C(=O)c2cc(NS(=O)(=O)c3ccc(F)cc3)ccc2O[C@@H]1CN(C)Cc1ccc(-c2ccccc2)cc1	active	active	inactive
Cc1noc(C)c1NC(=O)N(C)C[C@H]1Oc2ccc(NC(=O)c3ccncc3)cc2C(=O)N([C@@H](C)CO)C[C@@H]1C	inactive	inactive	inactive
C[C@@H]1CN([C@H](C)CO)C(=O)Cc2cc(NC(=O)Cc3cn(C)c4ccccc34)ccc2O[C@@H]1CN(C)C	inactive	inactive	inactive
COc1ccc(C#Cc2ccc3c(c2)[C@]2(C(=O)N3)[C@H](c3ccc(OCCO)cc3)N3[C@H](c4ccccc4)[C@H](c4ccccc4)OC(=O)[C@H]3[C@@H]2C(=O)N2CCc3cc(OC)c(OC)cc3C2)cc1	inactive	inactive	inactive
CN(C)C(=O)C[C@H]1C=C[C@@H](NC(=O)C2CC2)[C@H](CO)O1	inactive	inactive	inactive
CN(C)CCCNC(=O)C[C@@H]1CC[C@@H]2[C@H](COc3ccc(NC(=O)NC4CCCC4)cc3C(=O)N2C)O1	inactive	inactive	inactive
Cc1noc(C)c1NC(=O)N(C)C[C@H]1Oc2ccc(NC(=O)c3ccncc3)cc2C(=O)N([C@H](C)CO)C[C@@H]1C	inactive	active	inactive
O=C(C[C@H]1CC[C@H](NS(=O)(=O)c2ccc(F)cc2)[C@H](CO)O1)N1CCC(Cc2ccccc2)CC1	inactive	inactive	inactive
C[C@@H]1CCCCO[C@H](CN(C)Cc2ccc3c(c2)OCO3)[C@H](C)CN([C@H](C)CO)C(=O)c2cc(NC(=O)C3CCCCC3)ccc2O1	inactive	active	inactive
Cc1ccc(S(=O)(=O)Nc2ccc3c(c2)C(=O)N([C@H](C)CO)C[C@H](C)[C@H](CN(C)C(=O)c2ccccc2)OCCCC[C@H](C)O3)cc1	inactive	inactive	inactive
COc1ccc(NC(=O)Nc2ccc3c(c2)C(=O)N([C@@H](C)CO)C[C@@H](C)[C@H](CN(C)C(=O)Nc2ccc(C(F)(F)F)cc2)OCCCC[C@H](C)O3)cc1	inactive	inactive	inactive
C[C@H]1ON(c2ccc(C(=O)OC(C)(C)C)cc2)[C@@H](c2ccc(O)cc2)[C@@H]1C(=O)N1C(=O)OC[C@@H]1c1ccccc1	inactive	inactive	inactive
C[C@H](CO)N1C[C@H](C)[C@@H](CN(C)Cc2ccc(C(F)(F)F)cc2)OCCCC[C@H](C)Oc2ccc(NC(=O)Nc3ccc(C(F)(F)F)cc3)cc2C1=O	inactive	inactive	inactive
CN(C)CC(=O)N[C@H]1CC[C@@H](CCNS(=O)(=O)c2ccccc2)O[C@H]1CO	inactive	inactive	inactive
O=C(C[C@H]1CC[C@@H](NC(=O)CN2CCOCC2)[C@@H](CO)O1)NCc1cccc(F)c1	inactive	inactive	inactive
CCOC(=O)n1ncc(C#N)c1N	inactive	inactive	inactive
Cc1noc(C)c1S(=O)(=O)N(C)C[C@@H]1OCCCC[C@@H](C)Oc2ccc(NC(=O)Nc3ccc(F)cc3)cc2C(=O)N([C@H](C)CO)C[C@H]1C	inactive	inactive	inactive
C[C@H]1CN([C@@H](C)CO)C(=O)c2cc(NC(=O)Nc3cccc4ccccc34)ccc2O[C@@H]1CN(C)Cc1ccc(-c2ccccc2)cc1	active	active	inactive
C[C@@H]1CCCCO[C@H](CN(C)Cc2ccc(C(F)(F)F)cc2)[C@H](C)CN([C@@H](C)CO)C(=O)c2cc(NC(=O)CCC(F)(F)F)ccc2O1	inactive	active	inactive
